From PubChem BioAssay AID720708 (National Center for Advancing Translational Sciences (NCATS), 2013)
The campaign covered roughly 360,000 compounds. About 660 (0.18%) were called active. The shares of active, inactive and inconclusive entries below differ from those in the screen. Calls follow the shape of the dose curve; as a rule, active = well fitted inhibition curve with a large enough effect; inconclusive = small, poorly fitted or top-dose-only effect; inactive = no such curve, though single readings can be large or run the other way. Potencies of inconclusive entries are left out as doubtful fits.

biological target: Rap guanine nucleotide exchange factor 4 (Homo sapiens) (UniProt Q8WZA2); assay: qHTS for Antagonist of cAMP-regulated guanine nucleotide exchange factor 2 (EPAC2): primary screen; conditions: EPAC2 GEF exchange of Rap1B-BODIPY-GDP, fluorescence; activity, negative = inhibition: at 114 µM (top of the series) unless noted; also: nearly all actives have a fitted effect of over 45% in size
% is scaled to controls: 0 for no effect and ±100 for the full control effect; potency is read from the fitted curve at half-maximal effect; tags tell the direction and shape of the fitted curve.

Sequence of UniProt Q8WZA2 (Q8WZA2 whole entry, looked up): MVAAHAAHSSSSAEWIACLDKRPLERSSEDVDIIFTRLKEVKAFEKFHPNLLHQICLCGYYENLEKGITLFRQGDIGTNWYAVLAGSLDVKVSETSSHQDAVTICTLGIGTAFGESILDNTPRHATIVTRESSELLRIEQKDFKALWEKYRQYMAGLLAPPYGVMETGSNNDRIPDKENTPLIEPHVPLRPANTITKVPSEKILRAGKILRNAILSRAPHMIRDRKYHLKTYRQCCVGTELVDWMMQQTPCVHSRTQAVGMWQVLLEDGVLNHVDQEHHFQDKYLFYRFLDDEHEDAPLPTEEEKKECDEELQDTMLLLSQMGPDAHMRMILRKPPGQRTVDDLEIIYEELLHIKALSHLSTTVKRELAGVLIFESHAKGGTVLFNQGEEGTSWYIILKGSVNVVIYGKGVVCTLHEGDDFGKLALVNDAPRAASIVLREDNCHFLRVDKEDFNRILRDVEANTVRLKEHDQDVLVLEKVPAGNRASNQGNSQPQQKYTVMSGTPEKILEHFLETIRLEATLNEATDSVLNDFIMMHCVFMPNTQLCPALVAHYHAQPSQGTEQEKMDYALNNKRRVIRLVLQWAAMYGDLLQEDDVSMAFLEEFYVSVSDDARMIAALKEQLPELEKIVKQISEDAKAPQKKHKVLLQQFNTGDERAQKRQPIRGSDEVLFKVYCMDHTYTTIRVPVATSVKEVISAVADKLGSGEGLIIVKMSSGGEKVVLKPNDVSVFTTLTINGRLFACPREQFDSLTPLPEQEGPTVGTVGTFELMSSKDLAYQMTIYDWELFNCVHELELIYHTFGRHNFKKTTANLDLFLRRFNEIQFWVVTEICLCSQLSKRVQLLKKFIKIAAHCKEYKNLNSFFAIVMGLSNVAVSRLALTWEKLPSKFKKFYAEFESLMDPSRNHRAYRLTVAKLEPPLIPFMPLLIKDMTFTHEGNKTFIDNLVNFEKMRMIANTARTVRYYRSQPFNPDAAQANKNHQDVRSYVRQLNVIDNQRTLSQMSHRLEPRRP

Compound | Potency | activity, negative = inhibition
COc1cc2c(cc1OC)C(c1cc(Br)ccc1F)N(C(=O)CCl)CC2 (stereo not given) | inconclusive [inhibitor, partial curve] | 
Cc1ccc(NCc2cccnc2)c(Br)c1 | inconclusive [inhibitor, partial curve] | 
CCCCNC(=O)C[C@@H]1C[C@@]2(C(=O)OCC)CCCC=C2N(CCC2=CCCCC2)C1=O | inactive | 
O=C(C(Sc1ccccc1)c1ccc(Br)cc1)N1CCOCC1 (stereo not given) | inconclusive [inhibitor, partial curve] | 
CC(C)(C)c1ccc(CC(=O)N2CCC2(C)C(=O)NCc2ccc(Cl)cc2)cc1 (stereo not given) | inconclusive [inhibitor, partial curve] | 
CCOC(=O)N(C)c1c(CC)nc2c(OCc3ccc(OC(F)F)cc3)cccn12 | inconclusive [inhibitor, partial curve] | 
COCCNc1nc(Nc2ccc(Cl)cc2F)c2sccc2n1 | inconclusive [inhibitor, partial curve] | 
Cc1c(C#N)c(N)c(C(=O)c2ccccc2)n1Cc1ccccc1 | inconclusive [inhibitor, partial curve] | 
O=C1CC(c2ccccc2)(c2ccccc2)c2ccccc21 | inconclusive [inhibitor, partial curve] | 
CCCC[C@H]1COCCS(=O)(=O)N1Cc1cccc(Cl)c1 | inconclusive [inhibitor, partial curve] | 
COc1ccc(-c2c(-c3ccccc3OC)oc3ccccc23)cn1 | inconclusive [inhibitor, full curve] | 
O=C(NC1CCCc2ccccc21)c1ccccc1OC(F)F (stereo not given) | inconclusive [inhibitor, full curve] | 
C#CCn1c(-c2ccccc2)ccc(C#N)c1=O | inconclusive [inhibitor, full curve] | 
CN(CC(=O)Nc1ccc(F)cc1[N+](=O)[O-])Cc1ccccc1 | inconclusive [inhibitor, full curve, poor fit] | 
CCc1nnc(NS(=O)(=O)c2ccc(NC(=O)/C=C/c3ccccc3Cl)cc2)s1 | inconclusive [inhibitor, partial curve, poor fit] | 
CC1(C(=O)NS(=O)(=O)c2cccc(F)c2)CCN1C(=O)C1(c2ccc(Cl)cc2)CCC1 (stereo not given) | inconclusive [inhibitor, partial curve] | 
Cc1ccc(C(=O)Nc2nc(-c3ccccn3)cs2)cc1S(=O)(=O)N1CCOCC1 | inactive | 
CCOC(=O)CN1C(=O)S/C(=C/c2ccc(O)c([N+](=O)[O-])c2)C1=O | inconclusive [inhibitor, partial curve, poor fit] | 
O=C(CNC(=O)/C=C/c1ccco1)N=Nc1c(O)[nH]c2ccccc12 | inactive | 
Cc1ccc(C)c(NCc2ccccc2CO)c1 | inconclusive [inhibitor, partial curve] | 
CC(/C=N/n1c(C2CCCCC2)n[nH]c1=S)=C\c1ccccc1 | inconclusive [inhibitor, partial curve] | 
Cc1oc2ccc(OS(C)(=O)=O)cc2c1C(=O)OC(C)C | inconclusive [inhibitor, partial curve] | 
Cc1nn(C(C)(C)C)c(OC(=O)CC(C)C)c1S(=O)(=O)c1ccccc1 | inconclusive [inhibitor, partial curve] | 
O=C(Nc1ccc(Cl)c(S(=O)(=O)N2CCCCC2)c1)c1cccnc1 | inconclusive [inhibitor, partial curve] | 

Compound | Potency | activity, negative = inhibition
CC1(C)CC2CC(C)(CN2S(=O)(=O)c2cccc(C(N)=O)c2)C1 (stereo not given) | inconclusive [inhibitor, partial curve] | 
C#Cc1cccc(Nc2nc(NCc3ccccc3)nc3ccsc23)c1 | inconclusive [inhibitor, single point] | 
O=C1c2ccccc2N2C(=O)c3ccccc3C2N1Cc1ccccc1 (stereo not given) | inconclusive [inhibitor, partial curve] | 
O=C(CSc1nc2cc(Cl)ccc2s1)c1cc2ccccc2o1 | inactive | 
COc1ccccc1Oc1ncnc2c1cnn2-c1ccccc1 | inconclusive [inhibitor, partial curve] | 
CCOC(=O)C1=C(C)N(CCCC(=O)O)C(=O)NC1c1ccccc1Cl (stereo not given) | inconclusive [inhibitor, partial curve] | 
CC(=O)c1cccc(CN2CCC(n3nccc3NC(=O)c3ccc4c(c3)OCO4)CC2)c1 | inactive | 
COc1ccc(CNC(=O)CN(Cc2ccco2)C(=O)CCC(=O)Nc2ccccn2)cc1 | inconclusive [inhibitor, single point] | 
CCC(C(=O)OC)n1c(-c2ccccc2)nc2ccccc2c1=O (stereo not given) | inconclusive [inhibitor, partial curve] | 
C#Cc1ccc([C@@H]2C=C(C(=O)OCC=C)O[C@H](OCc3ccc(CO)cc3)C2)cc1 | inconclusive [inhibitor, single point] | 
N#C/C(=N\Nc1ccc([N+](=O)[O-])cc1)C(=N)N1CCOCC1 | inactive | 
CC(C)(C)OC(=O)N1CCC(NC(=O)c2[nH]c(C(F)(F)F)nc2-c2ccccc2)CC1 | inconclusive [inhibitor, single point] | 
CCOC(=O)c1c(NC(=O)Cn2nc(C(F)F)cc2C(F)F)sc(C)c1C | inactive | 
CCCCNc1c(-c2ccc(OC)c(SC(C)CC)c2)nc2cc(C)ccn12 (stereo not given) |  | inconclusive: -17.4% [inhibitor]
COc1ccc(S(=O)Cc2ccc(C(=O)NCc3cccc(OC)c3)o2)cc1 (stereo not given) | inactive | 
Cc1ccc(CN(C)C(=O)c2c(C)nn(-c3ccccc3)c2C)cc1 | inactive | 
Cc1ccc(S(=O)(=O)CS(=O)(=O)c2ccc(C)cc2)cc1 | inactive | 
Cc1ccc(C2=CC(c3ccc(C)cc3)n3ncnc3N2)cc1 (stereo not given) | inconclusive [inhibitor, partial curve] | 
Cc1ccc2nc(-c3ccc(N4C(=NC(=O)CCC(=O)O)SC5CS(=O)(=O)CC54)cc3)sc2c1 (stereo not given) | inactive | 
COC(=O)CSc1nc(Cc2ccccc2)nc2ccccc12 | inconclusive [inhibitor, partial curve] | 
COc1ccc(CCN2CC(C(=O)Nc3ccc(S(C)(=O)=O)cc3)CC2=O)cc1OC (stereo not given) | inactive | 
Nc1nc(-c2ccc(Cl)cc2)c(S(=O)(=O)c2ccccc2)s1 | inconclusive [inhibitor, single point] | 
COc1ccc(-c2cncnc2-c2ccc(OC)cc2O)cc1 | inconclusive [inhibitor, full curve] | 
C=Cc1ccc(CC2(C)C(=O)Nc3ccc(-c4cccnc4)cc32)cc1 (stereo not given) | inconclusive [inhibitor, partial curve] | 

Compound | Potency | activity, negative = inhibition
Cc1ccc(NC(=O)C2CCCN(C(=O)c3ccc(Cl)cc3)C2)cc1C (stereo not given) | inactive | 
Oc1ccccc1-c1cc(-c2ccco2)[nH]n1 | inactive | 
COc1cccc(-c2ccc3ncnc(N(C)Cc4ccco4)c3c2)c1 | active: 31.6 µM | 
CCOc1cc(S(=O)(=O)N(CC)CC)c(OCC)cc1-n1cnnn1 | inactive | 
N#C/C(=C(/O)CSc1ccccn1)c1nc2ccccc2s1 | inactive | 
COc1ccc2[nH]c(=O)c(-c3nnn(-c4ccc(Cl)nc4)n3)cc2c1 | inactive | 
COc1ccc(/C=C(/NC(=O)c2ccc([N+](=O)[O-])cc2)C(=O)NCCCN(C)C)cc1 | inactive | 
COc1ccc(Br)cc1CN(C)CC(=O)Nc1c(Cl)cccc1Cl | inconclusive [inhibitor, partial curve] | 
COC(=O)C(CC(=O)c1ccc(Br)cc1)n1cccn1 (stereo not given) | inconclusive [inhibitor, single point] | 
CC(C)(C)c1cc(CN2CCCC(O)C2)c(O)c(C(C)(C)C)c1 (stereo not given) | inconclusive [inhibitor, partial curve] | 
CCn1nc(C(=O)NCC(c2cccs2)N2CCOCC2)c2ccccc2c1=O (stereo not given) | inconclusive [inhibitor, full curve, poor fit] | 
CSc1ncccc1C(=O)OCc1ccccc1Cl | inconclusive [inhibitor, full curve] | 
O=c1c2ccccc2sn1-c1ccc(F)cc1 | inactive | 
COC(=O)c1c(CCl)noc1C(=O)NCC1CCCO1 (stereo not given) | inactive | 
COc1ccc(-c2ccc(C(=O)NCC3CC3)c3occc23)c(C)c1 | inconclusive [inhibitor, single point] | 
O=C(Nc1ccc2oc(-c3ccncc3)nc2c1)c1ccc2c(c1)OCCO2 | inconclusive [inhibitor, partial curve] | 
CC(=O)c1cc2c(cc1NS(=O)(=O)c1ccccc1F)OCO2 | inconclusive [inhibitor, full curve] | 
COc1ccc(-c2sc3ccccc3c2C#CCCO)cc1 | inconclusive [inhibitor, partial curve] | 
Cc1ccc2c(c1)N(Cc1cccc(Cl)c1)C(=O)c1cccnc1O2 | inconclusive [inhibitor, partial curve] | 
CC1=NN(C(C#N)c2ccccc2)C(c2ccccc2)C1 (stereo not given) | inconclusive [inhibitor, partial curve] | 
OC(c1ccccc1)(c1nc(/C=C/c2ccc(C(F)(F)F)cc2)cs1)C(F)(F)F (stereo not given) | inconclusive [inhibitor, partial curve] | 
O=S(=O)(c1ccccc1)c1cnc(-c2ccccc2)nc1N1CCCCC1 | inconclusive [inhibitor, partial curve] | 
